# Laboratory results as given in article PMC6919601, “Identification of Plasmodium dipeptidyl aminopeptidase allosteric inhibitors by high throughput screening” (PLoS ONE, 2019).
# Screen size: about 110,000 compounds; about 230 (0.21%) showed an effect of 50% or more. The list shows a part of the results.
# Target: DPAP1 (Plasmodium falciparum, UniProt Q8IIJ9)
# Assay: primary screen, percent inhibition; read by cleavage of a fluorogenic dipeptide substrate; higher = more effect of the substance
# Set-up: species or system P. falciparum D10 trophozoite lysates; single well
# 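Note: 30 min substrate incubation versus DMSO and 10 µM JCP410 controls.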
# Chain of DPAP1 (Q8IIJ9 whole entry, looked up): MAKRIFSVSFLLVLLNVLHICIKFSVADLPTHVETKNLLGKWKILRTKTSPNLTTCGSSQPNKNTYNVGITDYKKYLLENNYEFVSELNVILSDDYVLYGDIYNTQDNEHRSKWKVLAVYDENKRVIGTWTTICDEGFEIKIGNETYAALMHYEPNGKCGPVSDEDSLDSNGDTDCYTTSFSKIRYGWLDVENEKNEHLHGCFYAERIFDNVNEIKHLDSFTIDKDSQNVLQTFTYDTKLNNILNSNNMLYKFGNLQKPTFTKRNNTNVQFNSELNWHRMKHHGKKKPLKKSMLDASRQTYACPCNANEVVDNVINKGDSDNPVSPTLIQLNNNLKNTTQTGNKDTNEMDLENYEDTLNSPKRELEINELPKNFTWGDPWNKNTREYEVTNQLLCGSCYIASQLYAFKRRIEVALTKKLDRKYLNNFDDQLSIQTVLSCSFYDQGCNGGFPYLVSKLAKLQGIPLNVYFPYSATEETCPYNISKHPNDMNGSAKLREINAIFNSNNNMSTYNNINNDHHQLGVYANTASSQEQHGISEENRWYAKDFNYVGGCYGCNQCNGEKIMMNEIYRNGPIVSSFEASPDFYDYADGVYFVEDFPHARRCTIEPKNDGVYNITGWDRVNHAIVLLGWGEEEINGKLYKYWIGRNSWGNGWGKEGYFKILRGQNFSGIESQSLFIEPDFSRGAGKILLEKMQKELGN
row,SMILES,% Inhibition @ 10 uM
1,CCOC(=O)C1CCN(Cc2ccc(SC)cc2)CC1,-5.41%
2,COCCN1C(=O)c2ccccc2C(C(=O)Nc2ccccn2)C1c1cccs1 (stereo not drawn),2.46%
3,Cc1cc(C)cc(NC(=O)c2cccnc2)c1,-1.22%
4,COCCN1C(=O)c2ccccc2C(C(=O)Nc2cccnc2)C1c1c[nH]c2ccccc12 (stereo not drawn),-4.03%
5,N#CCNC(=O)[C@H](CC1CCCCC1)NC(=O)c1cc2ccccc2o1,-0.214%
6,CCn1cc(/C=C(\NC(=O)c2cc(OC)c(OC)c(OC)c2)C(=O)NCCCO)c2ccccc21,3.24%
7,O=C(O)c1nn2c(c1Br)NC(c1ccccc1)CC2C(F)(F)F (stereo not drawn),-3.49%
8,Cc1ccc(CNCc2c(C(=O)O)[nH]c3cc(C)ccc23)cc1,1.26%
9,O=C(O)c1nccnc1C(=O)Nc1nccs1,-4.74%
10,CC(=O)c1ccccc1OCC(O)Cn1cnc2cc(C)c(C)cc21 (stereo not drawn),2.31%
11,CC(C)CC(=O)Nc1nnc(S(=O)(=O)N2CCCCC2)s1,1.68%
12,C=CCSC1=C(C#N)C(C)(C)C(C#N)C(=O)N1 (stereo not drawn),-2.51%
13,Cc1ccc(Cl)cc1-n1ncc2c(NCc3ccco3)ncnc21,-5.19%
14,CC1CCN(C(=O)c2cccc(NC(=O)c3cccs3)c2)CC1,3.66%
15,CCOC(=O)c1c(NC(=O)c2cc(Cl)ccc2OC)sc2c1CCCC2,19.4%
16,Cc1nc(NC(=O)c2ccc(F)cc2)ccc1Br,0.843%
17,O=[N+]([O-])c1ccc2[nH]c3c(c2c1)CCC/C3=N\CCO,9.01%
18,CC(C)Cc1nnc2sc(NC(=O)C(C)C)nn12,-2.48%
19,Cc1nn(CC(=O)NCc2ccc(OC(C)C)cc2)c(=O)c2cccn12,-0.698%
20,CCc1cccc(OCC(=O)Nc2ccc(Br)cc2C(=O)O)c1,0.605%
21,CC(=O)N1CCc2nc3sc(C(N)=O)c(N)c3c(C(F)(F)F)c2C1,2.72%
22,COc1ccc(NS(=O)(=O)c2ccc(OC)c(Cl)c2Cl)cc1OC,-15.4%
23,Cc1c(Cl)cccc1NC(=O)/C=C/c1ccc(Cl)cc1,4.54%
24,OC1C2CCCC1C(N1CCCCC1)CC2 (stereo not drawn),3.72%
25,CC1CCN(S(=O)(=O)c2ccc(NC(=O)c3cc(Cl)ccc3Cl)cc2)CC1,2.22%
26,CCOC(=O)C1=C(C)NC(=O)NC1c1cc(Cl)cc(Cl)c1OC (stereo not drawn),-1.45%

row,SMILES,% Inhibition @ 10 uM
1,COCCNC(=O)CCc1nnc2n(Cc3ccccc3Cl)c(=O)c3ccccc3n12,-4.21%
2,NC(=O)C1CCCN(CC2CC=CCC2)C1 (stereo not drawn),0.0792%
3,Cc1cc(C)cc(OCC(O)CN2CC(C)OC(C)C2)c1 (stereo not drawn),0.815%
4,Cc1ccc(-n2nc3c(c2NC(=O)c2ccc(Br)cc2)CS(=O)(=O)C3)c(C)c1,5.49%
5,CC1=CCC2CC1C(c1ccc(O)cc1)OC2(C)C (stereo not drawn),18.2%
6,Cc1[nH]nc(O)c1C(c1ccccc1)C(C#N)C#N (stereo not drawn),0.605%
7,CC1(C)CC(=O)c2c(O)c(-c3ccccc3)c(=O)n(-c3ccc(Br)cc3)c2C1,-6.58%
8,CC1CCN(C(=O)CN(Cc2ccccc2)S(C)(=O)=O)CC1,1.86%
9,O=C(O)C1CC1(c1ccccc1)c1ccccc1 (stereo not drawn),-10.2%
10,O=C(O)C1Sc2nc(O)sc2C2c3cc(Br)cc(Br)c3OC(=O)C12 (stereo not drawn),5.44%
11,COc1cc(OC)c(OC)cc1CN1CCN(C)CC1,1.63%
12,COc1ccc(C2CC(O)=C/C(=N/CCc3c(C)[nH]c4ccccc34)C2)cc1 (stereo not drawn),1.03%
13,CCC(C(=O)NCC1CCCO1)n1nc(C)n2c(cc3sccc32)c1=O (stereo not drawn),1.8%
14,COc1ccc(/C=N\n2nnnc2N)cc1Br,9.09%
15,Cc1nnc(N2CCCC(C(=O)NCC3CCCO3)C2)c2nn(-c3ccc(Cl)cc3)c(C)c12 (stereo not drawn),-1.41%
16,Cc1sc2ccc(-c3ccccc3)cc2[n+]1CCCS(=O)(=O)O,-1.33%
17,Cc1ccc2onc(CNC(=O)N3CCCC3)c2c1,2.46%
18,CC(=O)N1CCC2(CC1)OC(=O)C(C)=C2C(=O)NC1CCN(Cc2ccccc2)CC1,1.34%
19,OC1CCN(Cc2ccsc2)CC1,0.708%
20,O=C(/C=C/c1ccc2c(c1)OCO2)NC1CCCCC1,-5.9%
21,CCC(C)N(CCNC(=O)c1nc(-c2cccnc2)no1)Cc1ccco1 (stereo not drawn),-1.97%
22,Cc1oc(-c2cccs2)nc1CSCC(=O)NC1CCCCCCC1,2.37%
23,O=C(Cn1cc(C(=O)C(F)(F)F)c2ccccc21)NCc1ccco1,0.13%
24,CC(C)NC(=O)c1cc2cc3ccc(Cl)cc3nc2o1,-1.54%
25,O=C(c1cc2nc(-c3ccccc3)cc(C(F)(F)F)n2n1)N1CCCCC1,-3.27%
26,CCOC(=O)N1CCN(Cc2nc3c(c(=O)n(C)c(=O)n3C)n2Cc2c(F)cccc2Cl)CC1,-4.14%

row,SMILES,% Inhibition @ 10 uM
1,Cc1ccc2nc(N3CCN(C4CCCCC4)CC3)c(-n3nc(C)cc3C)nc2c1,0.166%
2,COc1ccc(CC(=O)Nc2ccc(CC#N)cc2)cc1,-2.67%
3,Cc1cc(C)n(CC(O)Cn2cnc3c2c(=O)n(C)c(=O)n3C)n1 (stereo not drawn),1.62%
4,O=C(O)CCCNS(=O)(=O)c1cccc2nsnc12,1.2%
5,O=[N+]([O-])c1n[nH]c(-c2ccccc2)n1,-2.32%
6,O=C(Nc1cccc(O)c1)c1ccccc1,4.83%
7,O=C(Cn1cccc1C(=O)c1ccccc1)NCCCN1CCc2ccccc2C1,-2.25%
8,O=C(Nc1ccc2c(c1)Cc1ccccc1-2)c1cccs1,0.13%
9,Cn1ncc(N)c1C(=O)Nc1cccc(C(F)(F)F)c1,-2.63%
10,C=CCc1cccc2cc(C(=O)Nc3ccc(C)cc3)c(=O)oc12,3.33%
11,CCOc1ccc(NC(=O)CN(c2cccc(F)c2)S(C)(=O)=O)cc1,1.1%
12,O=C(c1cccc2ccccc12)N(Cc1ccc(Cl)cc1)C1CCS(=O)(=O)C1 (stereo not drawn),8.95%
13,Cc1ccccc1S(=O)(=O)Cc1ccc(C(=O)NC2CCCCC2C)o1 (stereo not drawn),-4.96%
14,COC(=O)c1ccc2c(c1)C(=O)/C(=C/c1cccc(OC)c1)O2,-1.37%
15,Clc1ccccc1-c1nnc(-c2ccc3c(c2)OCO3)o1,-3.8%
16,COC(=O)c1c(N2C(C)=CC(C(F)(F)F)(C(F)(F)F)C(C#N)=C2N)sc2c1CCCC2,7.1%
17,Cc1cc(/C=C2/NC(=O)N(c3ccc(Cl)cc3)C2=O)c(C)n1C(C)C,-9.2%
18,COc1ccc(C/N=C2\C=C(O)OC23CCCCC3)cc1,4.95%
19,CC(C)N(Cc1ccccc1)C(=O)COc1ccccc1,-4.31%
20,COc1ccc(Br)cc1CNC(=O)C1CCN(S(=O)(=O)N2CCC(C)CC2)CC1,-6.88%
21,O=C(Nc1ccccc1)N(Cc1ccccc1)Cc1ccccc1,-2%
22,CSc1nnc2c(n1)[nH]c1c(C)cccc12,0.884%
23,Cc1nnc(NC(=O)CN2C(=O)S/C(=C\c3ccc(Cl)cc3)C2=O)s1,6.42%
24,c1cc(CSc2nc3c(ccc4nsnc43)[nH]2)c2nsnc2c1,3.88%
25,O=C(Nc1cccc(O)c1)/C(=C\c1cccs1)NC(=O)c1ccccc1,4%
26,CCO/C(O)=C1/C(C)=NC2=C(C(=O)CCC2)C1c1cccnc1 (stereo not drawn),-3.5%

row,SMILES,% Inhibition @ 10 uM
1,Nc1nnc(SCC(=O)c2ccc(-c3ccccc3)cc2)s1,3.61%
2,O=C(c1cnn(-c2ccccc2)c1-n1cccc1)N1CCCC(C(=O)N2CCC3(CC2)OCCO3)C1 (stereo not drawn),1.38%
3,CC1(C)CC(=O)C2=C(C1)c1c(ccc3ccccc13)NC2c1ccccc1F (stereo not drawn),-8.03%
4,O=C(CN1CCN(Cc2ccccc2Cl)C1=O)NCC1CCCO1 (stereo not drawn),-2.99%
5,CCOc1ccc(CCNC(=O)c2cncs2)cc1OCC,-1.05%
6,COc1cc(OC)cc(C(=O)Nc2nc3c(C)cccc3s2)c1,-4.63%
7,Cc1ccccc1Cn1cc(NC(=O)c2ccccc2Br)cn1,-2.03%
8,CCN1CCCC1CNC(=O)c1cnn(-c2ccc(C)cc2)c1C1CCN(C(=O)OC(C)(C)C)CC1 (stereo not drawn),8.68%
9,Cc1cccc(-c2nc(CS(=O)CC(=O)NCc3ccccc3Cl)c(C)o2)c1 (stereo not drawn),-4.71%
10,Cn1c(=O)c2c(ncn2CC(=O)NC(c2ccccc2)c2ccccc2)n(C)c1=O,-4.68%
11,O=C1C2C(C(=O)N1c1ccc(Cl)cc1)C1C=CC2C12CC2c1ccccc1 (stereo not drawn),-2.65%
12,COc1ccc2oc(=O)c(C(=O)N3CCN(C)CC3)cc2c1,-0.48%
13,COc1ccccc1/C=C/C=C1\N=C(c2ccc(C)cc2)OC1=O,6.67%
14,Cc1[nH]c2ccc(Br)cc2c1CCN1C(=O)OC(C)(C)C1(C)O (stereo not drawn),-2.54%
15,O=c1c(Oc2ccc3ccccc3c2)c(C(F)(F)F)oc2c(CN3CCOCC3)c(O)ccc12,2.36%
16,CC(CNc1nc2c(-c3cccc(F)c3)nnn2c2ccccc12)c1ccccc1 (stereo not drawn),-4.69%
17,O=C(NCc1ccc2c(c1)OCO2)c1ccc(CS(=O)(=O)c2ccc(Br)cc2)o1,0.458%
18,CN1C2=NCCCN2C(=O)c2ccccc21,-3.44%
19,N=C(NOC(=O)COc1ccccc1)c1ccccn1,-3.06%
20,Cc1cccc2sc(NC(=O)CCN3C(=S)NC(C)(C)CC3C)nc12 (stereo not drawn),-4.23%
21,O=C1c2ccccc2C(=O)N1CSc1ccccn1,-6.59%
22,COC(=O)c1cn(C(=O)CCc2ccccc2)c2ccccc12,-2.65%
23,O=C(O)c1cccc(COCC(F)(F)F)c1,-3.13%
24,CCc1nn(CC(=O)N2CCc3ccccc3C2)c(=O)c2cc3occc3n12,-5.63%
